Data: PubChem BioAssay AID686978 (National Center for Advancing Translational Sciences (NCATS), 2013)
Where “and” joins values, the source holds several entries; their conditions need not be identical. Equal values may be shown once. About 64,000 (15%) of roughly 420,000 compounds were called active. This list was built around the results that the source calls inconclusive (neither active nor inactive); the mix of calls is not that of the screen. The call rests on the fitted dose curve; in most records, active means well fitted inhibition curve with a large enough effect; inconclusive means small, poorly fitted or top-dose-only effect; inactive means flat fitted curve, though single readings scatter. Where the call is inconclusive, the potency comes from a doubtful curve fit.
On the % scale 0 is the no-effect control and ±100 the full control effect; potency means the concentration at half of the fitted maximal effect; tags describe the fitted curve by direction and shape.

Assay: qHTS for Inhibitors of human tyrosyl-DNA phosphodiesterase 1 (TDP1): qHTS in cells in absence of CPT; further: nearly all actives have a fitted effect of over 55% in size
Conditions: DT40 Tdp1-/- hTDP1 cells, no CPT, ATP luminescence, 48 h; activity change, negative = growth inhibition: at 46.2 µM (top of the series) unless noted
In short: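 Readout: luminescence from CellTiter-Glo after 30 min in the dark at RT. Cells: DT40 Tdp1-/- with stable hTDP1, 400/well. Exposure: compounds alone, ≥48 hr, 37 °C.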
In the case of COc1ccc2cnn(-c3ccc(C)cc3)c(=O)c2c1OC, the Potency is reported as active: 20.6 µM. For COc1ccc([N+](=O)[O-])cc1NCC(=O)Nc1cccc(S(=O)(=O)N2CCCC2)c1, the Potency was active: 16.4 µM. For CCOC(=O)c1ccc(NC(=O)Cn2c(C)nc3c(sc(=S)n3CC)c2=O)cc1, the Potency was inconclusive: 18.4 µM [inhibitor, partial curve]. In the case of CC(C)NC(=O)c1onc(CSc2cccc(Cl)c2)c1C(=O)O, the “activity change, negative = growth inhibition” value is reported as inactive: -16.6%. With CCOC1=C2[C@@H](CN(S(=O)(=O)c3ccc(C)cc3)[C@H]2c2cccc3ccccc23)[C@H]2C(=O)N(C)C(=O)[C@H]2C1 the “activity change, negative = growth inhibition” value was inactive: -1.17%. In the case of CCOC(=O)[C@H]1[C@H]2COc3ccc(Cl)cc3[C@@H]2N2C(=O)c3ccc(C)cc3NC(=O)[C@@]12C, the Potency is reported as inconclusive: 16.4 µM [inhibitor, single point]. With O=C(OCc1cccc(Cl)c1)c1cc(S(=O)(=O)N2CCCCC2)ccc1N1CCOCC1 the Potency was active: 29.1 µM. For Cc1csc2nc(-c3cccc(NC(=O)c4ccc(S(N)(=O)=O)cc4)c3)cn12, the Potency was active: 16.4 µM. In the case of CN(C(=O)c1c[nH]c(=O)cc1C(F)(F)F)c1ccc(Cl)cc1, the Potency is reported as inconclusive: 29.1 µM [inhibitor, single point]. In the case of COc1ccc(-c2nc3cc(NC(=O)COc4ccc(F)cc4)ccc3o2)cc1, the Potency is reported as inconclusive: 8.2 µM [inhibitor, partial curve]. With COc1ccc(C(=O)Nc2cccc(-c3ccc(N4CCOCC4)nn3)c2)cc1 the Potency was inconclusive: 29.1 µM [inhibitor, single point]. In the case of Cc1cc(/C=N/NC(=O)C(=O)NCc2ccccn2)c(C)n1-c1cccc(Br)c1, the Potency is reported as inconclusive: 18.4 µM [inhibitor, single point]. In the case of Cc1ccccc1C[n+]1cccc2ccccc21, the Potency is reported as active: 14.6 µM. For Cc1ccc(NC(=S)/C(=C(\[O-])c2ccc(F)cc2)[n+]2ccccc2)cc1, the Potency was inconclusive: 29.1 µM [inhibitor, single point]. For COc1ccc(OC)c(CNC(=O)c2cc(=O)[nH]c3ccc(S(=O)(=O)N4CCCCC4C)cc23)c1 (stereo not drawn), the Potency was active: 16.4 µM. With COc1ccc(N2C(=O)CCC(C(=O)O)C2c2ccc(F)cc2)cc1 (stereo not drawn) the “activity change, negative = growth inhibition” value was inactive: 5.64%. In the case of NC(=S)NNC(=O)C12CC3CC(CC(C3)C1)C2, the “activity change, negative = growth inhibition” value is reported as inactive: 24.6%. In the case of C/C(=N\N=C(/N)SC1CC(=O)N(c2ccc(Cl)c(Cl)c2)C1=O)c1cccs1 (stereo not drawn), the Potency is reported as inconclusive: 29.1 µM [inhibitor, single point]. With CC1(C)OC(=O)C2=C(C[C@@H](C3CCCCC3)O[C@@H]2c2ccc(F)cc2)O1 the Potency was inconclusive: 29.1 µM [inhibitor, single point]. In the case of Cc1cc(C)c2c(CN(Cc3ccccc3)Cc3ccccc3)cc(=O)oc2c1, the Potency is reported as active: 16.4 µM. With CCCC(=Nc1ccccc1OC)C1=C(O)CC(c2ccccc2)CC1=O (stereo not drawn) the Potency was inconclusive: 25.9 µM [inhibitor, single point]. For COc1ccc(CCN2CC(C(=O)Nc3nccs3)CC2=O)cc1OC (stereo not drawn), the “activity change, negative = growth inhibition” value was inactive: -10.7%. In the case of C[C@@]12C(C[C@H](O)[C@@]34C[C@@H](CCC13)[C@@H](CO)C4=O)[C@](C)(C(=O)O)CC[C@@H]2O (stereo partly drawn), the Potency is reported as inconclusive: 23.1 µM [inhibitor, single point]. With O=C(CCCCCCN1C(=O)c2ccccc2C1=O)N1CCC(c2ccccc2)C1 (stereo not drawn) the Potency was inconclusive: 18.4 µM [inhibitor, partial curve]. With CCNS(=O)(=O)c1cc(Br)ccc1OC the Potency was inconclusive: 18.4 µM [inhibitor, partial curve, poor fit]. For CCN(CC)CCNC(=S)Nc1ccc2nc(N3CCN(CC)CC3)cc(C)c2c1, the Potency was inconclusive: 23.1 µM [inhibitor, single point]. For CCC(=O)Nc1ccc(S(=O)(=O)NCc2cccn2Cc2cccc(C)c2)cc1, the Potency was active: 23.1 µM. For Cc1ccc(NC(=O)CSc2ncccc2C(=O)Oc2cccc([N+](=O)[O-])c2)cc1Cl, the Potency was inconclusive: 23.1 µM [inhibitor, single point]. With Cc1cccc(OCC(=O)OCC(=O)Nc2ccc(Cl)cn2)c1 the “activity change, negative = growth inhibition” value was inactive: -2.9%. For CC1(C)CC(CC(=O)O)C(=O)O1 (stereo not drawn), the “activity change, negative = growth inhibition” value was inactive: -5.69%. For Cc1ccc(OCC(=O)N(Cc2nnc(-c3ccccc3Cl)o2)C2CC2)cc1C, the Potency was inconclusive: 29.1 µM [inhibitor, single point]. With CC(C)CN1CCC(=O)N(CCSc2ccccc2)CC1 the Potency was “inactive and inconclusive: 11.2 µM [inhibitor, partial curve]”. For COc1cccc(NC(=O)Cn2c(=O)n(Cc3nc(-c4ccccc4)no3)c(=O)c3ccccc32)c1, the Potency was inconclusive: 7.31 µM [inhibitor, partial curve]. In the case of Cc1ccc(S(=O)(=O)N(CC(=O)NCc2ccco2)Cc2ccc(F)cc2)cc1, the “activity change, negative = growth inhibition” value is reported as inactive: -19.2%. In the case of Cc1ccc(S(=O)(=O)CC(=O)NC(C)c2ccccc2)cc1 (stereo not drawn), the “activity change, negative = growth inhibition” value is reported as inactive: 2.72%. With C(=N\Nc1cc(N2CCCCC2)ncn1)/c1ccco1 the “activity change, negative = growth inhibition” value was inactive: -27.6%. For Cc1ccc(NC(=O)c2ccc(C#CC3(O)CCCCC3)cc2)cc1C, the Potency was active: 16.4 µM. For Cc1ccc(C(=O)OCC(=O)NC2CCCC2)cc1, the “activity change, negative = growth inhibition” value was inactive: -1.3%. In the case of CCc1ccccc1NC(=O)CSc1ncc2c(n1)-c1ccccc1N(C)S2(=O)=O, the Potency is reported as inconclusive: 29.1 µM [inhibitor, single point]. In the case of O=C(NCCC1=CCCCC1)c1ccc2c(c1)ncn2-c1cccc(Cl)c1, the Potency is reported as active: 14.6 µM. With O=C(CCCN1C(=O)C(c2ccccc2)Oc2cccnc21)Nc1ccccc1Br (stereo not drawn) the Potency was inconclusive: 29.1 µM [inhibitor, single point]. In the case of CC(C)C(=O)Nc1ccc(NC(=O)c2cccnc2)cn1, the “activity change, negative = growth inhibition” value is reported as inactive: 9.25%. In the case of FC(F)(F)c1ccccc1NC(=S)NC1CCN(Cc2ccccc2)CC1, the “activity change, negative = growth inhibition” value is reported as inactive: 5.92%. With CCOC(=O)c1c(C)c(-c2ccccc2)n(CC(=O)N2CCCC2)c1C the Potency was inconclusive: 18.4 µM [inhibitor, single point]. In the case of COc1ccccc1-c1c(C)nn2c(N)c(-c3ccccc3)cnc12, the Potency is reported as active: 5.8 µM. With Cc1ccc(S(=O)(=O)Nc2ccc3cn[nH]c3c2)cc1C the Potency was inconclusive: 16.4 µM [inhibitor, partial curve, poor fit]. With COc1ccc(-n2c(COc3cccc4ccccc34)nnc2SCC#N)cc1 the Potency was inconclusive: 29.1 µM [inhibitor, single point]. For O=C(N/N=C/C(Cl)=C\c1ccccc1)c1ccco1, the Potency was active: 29.1 µM. For CCOC(=O)N1CCC(NC(=O)c2cnn(-c3ccccc3)c2C2CCN(C(=O)OC(C)(C)C)CC2)CC1, the “activity change, negative = growth inhibition” value was inactive: -7.29%. With O=C(COc1ccccc1Cl)NNC(=O)c1ccc2nc[nH]c2c1 the “activity change, negative = growth inhibition” value was inactive: -16.7%. With COc1cc(NC(=O)CSc2ncnc3scc(-c4ccccc4)c23)c(C(=O)O)cc1OC the “activity change, negative = growth inhibition” value was inactive: 0.568%. With COc1ccc(NC(=O)C[C@H]2C(=O)N(c3ccc(Br)cc3)C[C@@H]2C)cc1 the Potency was inconclusive: 18.4 µM [inhibitor, single point]. For COc1ccc(C2(C(=O)NCCCN3CCOCC3)CCOCC2)cc1, the “activity change, negative = growth inhibition” value was inactive: 7.81%. In the case of NC(N)=NC(N)=Nc1cccc(Cl)c1, the Potency is reported as active: 21.1 µM. In the case of Cc1cccc(CC(=O)N2CC(=O)Nc3ccc(F)cc3C2c2ccccc2)c1 (stereo not drawn), the Potency is reported as inconclusive: 23.1 µM [inhibitor, single point]. For CSc1cc(-c2ccccc2)n(Cc2ccc(Cl)cc2Cl)c(=O)c1C#N, the Potency was active: 23.1 µM. For CC(OC(=O)C(C)N1C(=O)C2C3C=CC(C4CC34)C2C1=O)C(=O)c1ccccc1 (stereo not drawn), the “activity change, negative = growth inhibition” value was inactive: -23.5%. In the case of Cc1ccc(CNC(=O)CSc2c(C(C)C)cnc3c2c(=O)n(C)c(=O)n3C)cc1, the Potency is reported as active: 25.9 µM. In the case of CCN(Cc1ccccc1)C(=O)Cc1ccc(OC)c(S(=O)(=O)N2CCOCC2)c1, the Potency is reported as inconclusive: 14.6 µM [inhibitor, partial curve]. In the case of O=C(NCc1ccncc1)c1ccc(OCc2ccccc2)cc1, the Potency is reported as active: 13 µM. With O=C(CNC(=O)c1cccc(Br)c1)N/N=C/c1cc(Br)cc(Br)c1O the Potency was inconclusive: 29.1 µM [inhibitor, single point]. In the case of Cc1cc(N2CCCC2=O)cc(C)c1S(=O)(=O)NCCOc1ccc(C(C)(C)C)cc1, the Potency is reported as active: 7.31 µM. For CC1(C)CC(CCN(Cc2ccccc2)C(=O)c2ccco2)(c2ccccc2)CCO1 (stereo not drawn), the Potency was inconclusive: 16.4 µM [inhibitor, single point]. For O=C(C1CCN(S(=O)(=O)c2cccc3cccnc23)CC1)N1CCn2c1nc1ccccc12, the Potency was inconclusive: 29.1 µM [inhibitor, single point]. With O=[N+]([O-])c1cccc(S(=O)(=O)c2ccc(NCCO)c([N+](=O)[O-])c2)c1 the Potency was inconclusive: 29.1 µM [inhibitor, single point]. For COCC(=O)N(C)[C@H]1C[C@H]2c3cc(-c4ccccc4)ccc3CCN2C(=O)[C@H]1[C@H](C)O, the “activity change, negative = growth inhibition” value was inactive: -23.6%. In the case of CCC(CC)C(=O)N1CCc2cc(OC)c(OC)cc2C1COc1ccc(F)cc1 (stereo not drawn), the Potency is reported as inconclusive: 18.4 µM [inhibitor, single point]. In the case of CCCCn1c(=O)[nH]c(=O)c2c1nc(-c1cc(Br)c(OCC)c(OC)c1)n2C, the Potency is reported as inconclusive: 25.9 µM [inhibitor, single point]. With O=C(O)c1ccc(N/N=C/c2c(F)cccc2Cl)cc1 the “activity change, negative = growth inhibition” value was inactive: 23.3%. For CCCCn1nnnc1C1(C)CCC(=O)N1CCc1c[nH]c2ccccc12 (stereo not drawn), the “activity change, negative = growth inhibition” value was inactive: -18.4%. With O=C(CCCSc1nc2ccccc2[nH]1)NCc1ccc(Cl)cc1 the Potency was inconclusive: 18.4 µM [inhibitor, single point]. In the case of CCSC1=N/C(=C\c2ccc(-c3ccccc3[N+](=O)[O-])o2)C(=O)S1, the activity change, negative = growth inhibition is reported as inconclusive: -30.5% [inhibitor]. For CCc1ccc(NS(=O)(=O)c2ccc3[nH]c4c(c3c2)CCCCCC4)cc1, the Potency was inconclusive: 29.1 µM [inhibitor, single point].
